The source of these data is PMC10432976.

By UniProt entry, the sequences of proteins in these tests, tags left out.
UniProt Q99836: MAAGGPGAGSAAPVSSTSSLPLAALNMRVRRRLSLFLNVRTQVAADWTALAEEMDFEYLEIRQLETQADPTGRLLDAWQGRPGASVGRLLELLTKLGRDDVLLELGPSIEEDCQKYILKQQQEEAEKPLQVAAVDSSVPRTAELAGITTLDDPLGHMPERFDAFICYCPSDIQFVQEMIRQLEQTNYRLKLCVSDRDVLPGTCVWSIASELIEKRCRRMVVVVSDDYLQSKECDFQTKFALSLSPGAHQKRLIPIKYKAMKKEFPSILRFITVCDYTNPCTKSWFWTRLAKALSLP

Experiment [1] has as its target T1, HA-Fli1 (pcDNA3-HA-Fli1, full-length mouse Fli1) (mouse) (UniProt Q9JJ28).
T1 sequence: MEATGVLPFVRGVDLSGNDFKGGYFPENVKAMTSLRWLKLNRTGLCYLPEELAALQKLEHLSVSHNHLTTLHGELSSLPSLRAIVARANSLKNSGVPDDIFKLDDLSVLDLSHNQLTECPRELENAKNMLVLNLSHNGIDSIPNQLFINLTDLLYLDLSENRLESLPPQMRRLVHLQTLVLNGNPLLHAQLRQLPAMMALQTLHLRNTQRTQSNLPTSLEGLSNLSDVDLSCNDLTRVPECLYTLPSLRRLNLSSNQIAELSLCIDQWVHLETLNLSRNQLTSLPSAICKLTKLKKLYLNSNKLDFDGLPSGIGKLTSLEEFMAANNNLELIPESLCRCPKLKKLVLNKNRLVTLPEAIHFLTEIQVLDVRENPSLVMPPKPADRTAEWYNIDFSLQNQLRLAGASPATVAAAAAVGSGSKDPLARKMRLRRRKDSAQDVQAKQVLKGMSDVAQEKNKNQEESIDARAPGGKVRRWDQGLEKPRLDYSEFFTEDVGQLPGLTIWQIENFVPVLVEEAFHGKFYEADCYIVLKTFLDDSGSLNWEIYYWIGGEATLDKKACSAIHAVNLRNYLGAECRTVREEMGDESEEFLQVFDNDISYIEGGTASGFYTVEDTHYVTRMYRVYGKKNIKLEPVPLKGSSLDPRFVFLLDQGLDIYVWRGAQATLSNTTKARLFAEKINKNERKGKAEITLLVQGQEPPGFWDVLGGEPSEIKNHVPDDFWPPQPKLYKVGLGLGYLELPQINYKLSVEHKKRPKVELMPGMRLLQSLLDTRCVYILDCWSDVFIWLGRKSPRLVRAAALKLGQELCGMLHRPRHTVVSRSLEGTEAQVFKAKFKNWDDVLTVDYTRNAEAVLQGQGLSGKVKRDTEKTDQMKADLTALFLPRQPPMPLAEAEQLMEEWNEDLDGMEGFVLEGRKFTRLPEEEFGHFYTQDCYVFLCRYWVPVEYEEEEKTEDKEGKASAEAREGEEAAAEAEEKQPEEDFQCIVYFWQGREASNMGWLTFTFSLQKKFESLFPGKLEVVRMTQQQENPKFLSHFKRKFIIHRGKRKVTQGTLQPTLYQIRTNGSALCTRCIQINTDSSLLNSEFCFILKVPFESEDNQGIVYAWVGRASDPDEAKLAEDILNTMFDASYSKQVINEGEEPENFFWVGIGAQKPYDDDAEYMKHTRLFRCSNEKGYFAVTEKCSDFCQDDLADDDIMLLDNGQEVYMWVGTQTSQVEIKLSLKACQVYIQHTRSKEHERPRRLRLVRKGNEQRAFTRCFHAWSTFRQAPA
The experiment in a line: co-IP; HA-Fli1 and Myc-MyD88 in transfected Min6 cells (monolayers); HA immunoprecipitation, blot for MyD88; vehicle or IL1β 10 ng/ml for 30 min; control gRNA, TRB3 gRNA, or coexpressed HA-TRB3 or Myc-TRB3.

For experiment [2], the target named is T2, Flag-TRB3 (expressed in Min6 cells) (UniProt Q8K4K2).
T2 sequence: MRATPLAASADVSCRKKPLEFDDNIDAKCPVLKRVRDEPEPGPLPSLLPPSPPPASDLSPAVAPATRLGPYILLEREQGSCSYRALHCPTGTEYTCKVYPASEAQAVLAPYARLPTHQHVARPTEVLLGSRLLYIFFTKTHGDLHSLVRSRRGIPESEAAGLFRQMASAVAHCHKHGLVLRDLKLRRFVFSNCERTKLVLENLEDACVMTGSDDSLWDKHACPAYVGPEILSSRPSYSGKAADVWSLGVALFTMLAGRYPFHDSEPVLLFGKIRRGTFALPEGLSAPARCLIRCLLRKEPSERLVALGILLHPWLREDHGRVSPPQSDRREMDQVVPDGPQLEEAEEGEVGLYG
Kind of experiment: co-IP; Flag-TRB3 in Min6 cells clustered into pseudoislets, treated with IL1β (10 ng/ml) for 30 min; Flag immunoprecipitates blotted for endogenous Fli1.

Experiment [3] addresses T2, Flag-TRB3 (expressed in Min6 cells). The experiment in a line: co-IP; Flag-TRB3 in Min6 cells clustered into pseudoislets, untreated (no IL1β); Flag immunoprecipitates blotted for endogenous Fli1.
Experiment [4] concerns the target T3, HA-Fli1-LRR (HA-tagged Fli1 N-terminal 400 amino acids) (UniProt Q13045).
T3 sequence: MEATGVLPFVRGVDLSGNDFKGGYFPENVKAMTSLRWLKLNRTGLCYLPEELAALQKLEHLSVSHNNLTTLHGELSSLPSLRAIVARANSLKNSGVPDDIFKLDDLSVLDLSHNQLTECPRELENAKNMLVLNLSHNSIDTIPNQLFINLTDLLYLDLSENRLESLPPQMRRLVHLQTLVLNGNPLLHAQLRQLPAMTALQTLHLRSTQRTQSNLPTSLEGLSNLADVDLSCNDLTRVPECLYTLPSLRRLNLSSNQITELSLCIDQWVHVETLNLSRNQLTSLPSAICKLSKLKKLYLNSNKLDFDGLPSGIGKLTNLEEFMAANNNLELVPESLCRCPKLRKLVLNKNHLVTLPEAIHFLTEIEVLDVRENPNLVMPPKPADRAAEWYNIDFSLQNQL
The experiment in a line: co-IP; HA-tagged LRR domains and Flag-TRB3 coexpressed in HepG2 cells; HA immunoprecipitation, Western blot for Flag-TRB3; without or with LPS 10 ng/ml for 30 min.

Results are given in words; binding and its absence hold for the method and conditions named. Binding seen in cells or lysates may run through a third protein. Some entries that bind do so weakly or less than the wild type. Tags and fused reporters may be left off the sequences shown.

In the case of Myc-MyD88 (from UniProt Q99836 1-296), the binding result in experiment [1] is listed as “binds”.

B1: endogenous Flightless homolog 1 (Fli1) of Min6 cells (protein, UniProt Q9JJ28 1-1271)
chain: T1 sequence
Regarding B1, the values for the binding entry in experiment [2] and in experiment [3] were “binds” and “no binding (condition: untreated cells (without IL1β))”, respectively.

B2: HA-TRB3 (coexpressed in Min6 cells) (protein, UniProt Q8K4K2 1-354)
chain: T2 sequence
Turning to B2, the binding result in experiment [1] is recorded as “binds”.

B3: Myc-TRB3 (coexpressed in Min6 cells) (protein, UniProt Q8K4K2 1-354)
chain: T2 sequence
Take B3: in experiment [1], the binding result was “binds”.

B4: Flag-TRB3 (coexpressed in HepG2 cells) (protein, UniProt Q8K4K2 1-354)
chain: T2 sequence
Take B4: the binding result in experiment [4] is “binds”.
